Experimental data published in the RNAGym collection of RNA variant scans (doi:10.1073/pnas.2313332121).
Variants at the background level are over-represented here.

B1: TPR 5TU (parent)
chain: GGAUCUUCUCGAUCUAACAAAAAAGACAAAUCUGCCACAAAGCUUGAGAGCAUCUUCGGAUGCAGAGGCGGCAGCCUUCGGUGGCGCGAUAGCGCCAACGUUCUCAACUAUGACACGCAAAACGCGUGCUCCGUUGAAUGGAGUUUAUCAUG

Variants of: B1
Test: polymerase ribozyme fitness, log enrichment relative to wild type (log ratio); higher = more active; in vitro selection for triplet polymerase activity
How it was run: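 Mutant libraries were PCR-built and transcribed for each subunit of a heterodimeric triplet polymerase ribozyme and selected for one round in triplicate at −7 °C, frozen, before gel excision of extended constructs and streptavidin-bead capture. Input and output libraries were Illumina-sequenced, keeping genotypes with ≥10 input reads and ≥1 read per output. Fitness is a logarithmic ratio of genotype to wild-type enrichment, in base 2, using inverse-variance-weighted replicate averages.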

Row | Variant | polymerase ribozyme fitness (log ratio)
1 | A20C U82A A150G | -0.662
2 | A20C A29C A49C C87A G94U G133U | ≤ -4.2
3 | A21C G59A C75U C87A A106U U134G | ≤ -4.2
4 | A21C G59C C85U G100C U130A G136A U144G | ≤ -4.2
5 | A20U A22U A121U G128A C129U A137C A138C | ≤ -4.2
6 | A20C C27U A47G A73G U77G G84U C114U C149A | ≤ -4.2
7 | A21C A22U C35A G94A A147G | ≤ -4.2
8 | A20G G58A G81C A142C | -1.55
9 | A21U A29U G50A U56A G92C U151G | ≤ -4.2
10 | A20U A22C G48A A73U C114G G141C | ≤ -4.2
11 | A21G G84U C118U | -1.39
12 | A20G C87A U101C A142C | ≤ -4.2
13 | A20G A24U U44A G50A C96U C132U A150C | ≤ -4.2
14 | A20C A21G A23C A28U C38A | ≤ -4.2
15 | A20U C54G C93U A110U C129G | ≤ -4.2
16 | A21C A26U C38U C87G C105U | ≤ -4.2
17 | A20C C38U C63G G65C G92C U151A | ≤ -4.2
18 | A20U C35U C76U C87G G141C U151C | ≤ -4.2
19 | A20U A52G G67A C93G | ≤ -4.2
20 | A21C A23C G42A C57U C75A C85A A106G A107G U109G | ≤ -4.2
21 | A20G C27U C38U U53A U77G A106C C116U U146C G152C | ≤ -4.2

Row | Variant | polymerase ribozyme fitness (log ratio)
22 | A20U C54G C87U A115G C149U | ≤ -4.2
23 | A21C C43U U61A C63U U111G | ≤ -4.2
24 | A21C A47U U55G C57G U77G U135G U144A G152U | ≤ -4.2
25 | A21C G68A U102G U111G G136A G140U U146A | ≤ -4.2
26 | A21C A29U A40U G92A A106C | ≤ -4.2
27 | A20U C57A G84U | -3.17
28 | A20U G88U | ≤ -4.2
29 | A20U A26C A40G C87A A91G | ≤ -4.2
30 | A20G C93A C103G | ≤ -4.2
31 | A19U U44A C95U C99G | ≤ -4.2
32 | A21G A24C G83C C103U | ≤ -4.2
33 | A20U C57U | -2.23
34 | A20C U44A C54A G94C A107C G141A G143U | ≤ -4.2
35 | A20C G46A C69G G94A | -2.22
36 | A21G U33G A52C U61G A64G U78G C95A A106G A142G | ≤ -4.2
37 | A20C C36G U82G C116A A119C A138G | ≤ -4.2
38 | A21G C27U A40U C69U C95G A98G C99U A115U A142U | ≤ -4.2
39 | A21C A22G U45A G58C A73G C79U | ≤ -4.2
40 | A20U C38A A41G C51A C85A U90G C114U | ≤ -4.2
41 | A20U A22U A24U A91C A106C | ≤ -4.2
42 | A21C U53A C85A | -2.67

Row | Variant | polymerase ribozyme fitness (log ratio)
43 | A21C C36G A41C C72U A73U U78G C96U C118U G128A A142U | ≤ -4.2
44 | A21C U45A G48A U53A C76U A119G | ≤ -4.2
45 | A21U A29C G88C A113C | ≤ -4.2
46 | A20U A28U C96G | ≤ -4.2
47 | A21G A49C G65C U78A C79U G83U G143C | ≤ -4.2
48 | A20U U44A C54A G74A C85G A91U U104A G136A | ≤ -4.2
49 | A20U C27G G59C G84C C99G C105G | ≤ -4.2
50 | A19U G81A A137G U148C | ≤ -4.2
51 | A20U U55A A91U C96U A110G U151C | ≤ -4.2
52 | A21C U61A G74A U82C A91G A121C G136A G141C | ≤ -4.2
53 | A20G C36G G83A A91G A142G | ≤ -4.2
54 | A20C A39C A73G G83A A91U | ≤ -4.2
55 | A21G A23C C75U G94A A150U | ≤ -4.2
56 | A21U A23U G34C U78A C87A U135G G140U A147G | ≤ -4.2
57 | A20G C76G G84A A122G | ≤ -4.2
58 | A21U A37C U53A C96A G140C | ≤ -4.2
59 | A21C A41C A60G C76G G83U C103A G141C | ≤ -4.2
60 | A20C G58A G70A U77G G141A A142C | ≤ -4.2
61 | A20G C54U G83U A91U G92A A98C | ≤ -4.2
62 | A20C A28G U31A U53G C87U U134A | ≤ -4.2
63 | A20U C75A G86C U109G A122U U145A | ≤ -4.2

Row | Variant | polymerase ribozyme fitness (log ratio)
64 | A20U A23G C35G C54A A60U G92A A115U | ≤ -4.2
65 | A21C A64U U82G G86A | ≤ -4.2
66 | A21G C125A G126A U139C U148C | ≤ -4.2
67 | A21C U31G C36A C57G C85A A119C | ≤ -4.2
68 | A20C A29C C35A C87U C118U G140U | ≤ -4.2
69 | A20U A24G C32G U78A G83C | ≤ -4.2
70 | A21G G50U C95G C96U A110C | ≤ -4.2
71 | A21C A41U C76U G84A C95U U111G | -4.18
72 | A21C A22U A37U G68U G94U G126U U127A | ≤ -4.2
73 | A21C C57U C93A C95A U139G | ≤ -4.2
74 | A20C C36U A40C U56A A89U U111G U130A A142G | ≤ -4.2
75 | A20G G80C U82A G100A U135C | ≤ -4.2
76 | A21U A30C A40G A97G C118G | ≤ -4.2
77 | A20C A41C A49C C54A U56A U77G C93A C103A | ≤ -4.2
78 | A20G C54G C96U | -2
79 | A21C C116U | 0.668
80 | A21G G68C C85A G92A G128U | ≤ -4.2
81 | A20U C54A | -2.02
82 | A20G G42C C85G A91C C125A | ≤ -4.2
83 | A20C A41C C108A | ≤ -4.2
